The source gives no read counts; variants with many changes may rest on few reads.

The chains are these.
B1: CPEB3 Ribozyme (parent)
chain: UAACAGGGGGCCACAGCAGAAGCGUUCACGUCGCAGCCCCUGUCAGAUUCUGGUGAAUCUGCGAAUUCUGCUGUAUAUCUC

The data set covers variants of B1. The data set can be described thus: self-cleavage, relative activity (ratio to wild type); higher = more cleavage; in vitro, sequencing. A digest of the protocol: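 After error-prone PCR and barcoding, CPEB3 ribozyme mutant libraries were transcribed with T7 RNA polymerase at 37°C for 5 hours, then given 15 min with DNase I before an EDTA stop, and they cleaved during both steps. Reverse transcription with template switching preceded Illumina sequencing. Relative activity divides a variant's cleaved/total read fraction by the unmutated ribozyme's. At least 5 reads were required per variant, and three batches were averaged.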
With C12A A13U A21G G24A A28G A64C U78C, the self-cleavage turned out to be 0.03.
As to C12A A20G A45G U60A U80C, the self-cleavage worked out at 0.58.
The value for C12A U43C U72C was 0.65; that for C12A G16A U25C A35U U66C U76C U78A was 0.03; that for C12U A35U C40U G52A A56U was 0.21.
In the case of C12A C27G A35U A45U A47C A56U, the self-cleavage worked out at 0.15.
The value for C12A A13U A20G A21G U51C was 0.15.
As to C12A A47G U54G A56G U78G, the self-cleavage is 0.6.
The result for C11U A45U U51A A75C reads 0.21; that for C12G A13U U49C A56U U80C, 0.4.
The result for C12U C17U A28G C34A A35U A65G reads 0.07.
The value for C11U A56U U67A C81U was 0.13.
For the variant C12U A28U G46A U58C, the self-cleavage came to 0.09.
The result for C12A A13U G16U U51G U54C A64G reads 0.09; that for C12G U26A U51G A64G, 0.23; that for C11U A28G G30A, 0.18.
The result for C11U A28G U54C reads 0.11; that for C11U U54C A64G U66C U67C, 0.09; that for C11U A35G U43C U54C U60A U78C, 0.06.
The result for C12U A13U A15G C29U U72A reads 0.19; that for C12A U48C U51C, 0.58.
For the variant C12U A13G A35G U49A U54C, the self-cleavage worked out at 0.69.
The value for C12U C29U A45U U78C was 0.14; that for C11U C34A U41A U48C A65U was 0.03; that for C11U A20G G30U C37U A45U U48C U66C was 0.05.
The result for C11U C34G U41G G53A U58A reads 0.04.
The value for C12G U31C U41G A45G A56G was 0.36.
With C12A A28U A56G A64G, the self-cleavage came out at 0.68.
The result for C11U A15G A21U U51G U69A reads 0.05.
The value for C12A A13U U31C U67C U72A was 0.13; that for C12A A13G A18G was 0.45.
The result for C12G A77U U78C reads 0.45; that for C11U A28G A35U A64G U69C, 0.03; that for C11U A18G U25C G46U G53C U60C, 0.04.
For C12A A18U A21G C40A U54A A65G, the self-cleavage worked out at 0.19.
The result for C11U A28G G33A reads 0.05; that for C12G C17G G24A C29G, 0.2; that for C11U U60G A64G, 0.06.
The result for C11U A21G C37U U72C reads 0.18.
The value for C12G A18G A45G A56G was 0.2; that for C12U A15C A20G G22A was 0.11; that for C12A A13U A15G C39A A56G U69C was 0.12.
Turning to C11U A13U C37U A45G U69C, the self-cleavage stood at 0.05.
In the case of C12U A35C U58C U80C, the self-cleavage stood at 0.32.
The result for C11U U41C G55A reads 0.5.
The result for C11U A45G U67C reads 0.1; that for C12U A13U G16A A20G U41G U72C, 0.06.
The result for C12U A18G A56G A75G reads 0.84.
Regarding C12G U31A A56G, the self-cleavage was determined as 0.5.
The value for C12A A13G C44U was 0.39; that for C12G C44A U69C was 0.13.
For C12U C23U U41C U72C, the self-cleavage worked out at 0.46.
On to C12U A21G U25C C40A U69C C79U, for which the self-cleavage was 0.07.
The value for C12A C27G U43A A47C U49A was 0.1; that for C11U A28G U41A U80C was 0.22.
The value for C11U C27G U49A A64G was 0.04; that for C12U A18U U43A A57U was 0.33; that for C11U U26C A45G U60C U67A U74C was 0.13.
The result for C12U G19A A20G A45G A57G G73U reads 0.63.
As to C11U A18G C23A U26C C32U A65G, the self-cleavage is 0.14.
The result for C11G U67A U69G reads 0.04; that for C11U A28G U43C A56G A64G A77G, 0.02; that for C12A C17U C27G A56C, 0.08.
Consider C11U U25C U60A U69A, for which the self-cleavage amounted to 0.13.
The value for C11U A45G U60A was 0.1.
The value for C12A A15G U41C A77G was 0.69; that for C12U A18G U76C was 1.22.
The value for C12A U54C C62U was 0.2; that for C12U A18G U48C A64G U72C was 0.07; that for C12U A15U G36A U51C U54C was 0.1.
With C12G A20U U25A U60G G63C, the self-cleavage came to 0.06.
The value for C11U A20G A47G A56G C71A was 0.06.
The result for C12G U25A U58C U74A reads 0.04; that for C12G U41G A64U U76A, 0.07.
In the case of C12U A15G A21U U58C, the self-cleavage came to 0.04.
The value for C12U A18G C34U U41C U54A was 0.04; that for C11U G24C U43C A47G U69C U72C was 0.1.
Consider C12U A13G U31A G33A A56G, for which the self-cleavage was found to be 0.1.
The value for C11U A18G U51A A77G was 0.18; that for C12G U41C U67G was 0.32; that for C11U A20U G73U was 0.1.
With C11U C23G U69A, the self-cleavage was determined as 0.04.
The value for C12U A13G A18G U26A C40U U43A was 0.23; that for C12G U51C A56G C62G A65G was 0.14; that for C12U A45U U60A U80A was 1.26.
The result for C11U A20G A28G U78C reads 0.34; that for C12A A15U C27U U66C U76C, 0.
The value for C11U U31G A35G U78G was 0.99.
With C11U U43C U69A A77U, the self-cleavage is 0.15.
The value for C11U A20U G24C U43C U72C was 0.21; that for C11U C12A U26C G30U U69C U76C was 0.05; that for C11U A57G U72A U80C was 0.61.
As to C12U A18G U58G, the self-cleavage came out at 0.34.
The value for C11U A13G U43C was 0.26.
The result for C12A A15C C38U U41G G73U reads 0.13.
The value for C12A C17G G22U was 0.44.
Consider C12U A47G U48C U54C A65G, for which the self-cleavage stood at 0.09.
As for C12A A13G U25C, the self-cleavage stood at 0.2.
Consider C12U C17U U41C A45U G70A, for which the self-cleavage came out at 1.2.
The result for C11G U69C C79U reads 0.26; that for C11U U26C U43A U72A, 0.07.
As for C11U A13G A35G, the self-cleavage was found to be 0.95.
The value for C11U A21G U25A A28U U43C A56G G63A was 0.07; that for C12A C27G A35U A56G was 0.09; that for C11U A15G U43A A75G was 0.49.
The value for C11U A15G C23U U41C A75C U78C was 0.05; that for C12G A13U U25A was 0.08.
With C12U A64G U72C U80C, the self-cleavage stood at 1.26.
The result for C12U G16C A28U U54A reads 0.22.
The result for C12A C27G U31A A47C G61A G70A reads 0.04; that for C11U A20G U26C A35G G46U U66G, 0.09.
For the variant C12U C44U A45G, the self-cleavage came out at 0.91.
C12U A15G A64G: the self-cleavage was 0.74.
With C11U U26A U49A U66C, the self-cleavage was 0.06.
The value for C11U G19C A28U C29U U43A U69C was 0.02; that for C12A A18G U31C was 0.26.
Turning to C11G U69A U74G, the self-cleavage is 0.12.
The value for C11U U31C U54C was 0.24.
For C11U U43C G63A, the self-cleavage turned out to be 0.12.
The value for C12U A47G A57G U60G A77G was 0.18.
In the case of C11U U26A U80C, the self-cleavage was determined as 0.31.
The result for C11U U26C A56U reads 0.05; that for C11U A35G A45G U54A A75C, 1.29.
As to C11U U51A U69C, the self-cleavage stood at 0.07.
The result for C12U A15G U31C U43C C59U A64U U69C reads 0.04; that for C12A A20C U41G U43A, 0.06; that for C11U A35G U49C U69G, 0.34.
The value for C12A G36A A57G was 0.18.
The value for C11U A15G A18G U43C U49C A64U was 0.06; that for C12U C32U A56G was 0.08.
Take C12U A13G U25C A28U C62U A65U: the self-cleavage is 0.11.
The result for C12U A15C U26A U31A A65U U66C reads 0.13; that for C12G C17G A28G U31C C59U, 0.05.
C12U A13G U26A A35G U43G G46A: the self-cleavage was 0.09.
The value for C12A U26C U31C C34U U43A U54A A65G was 0.08; that for C11U A21G U51C was 0.28.
Turning to C11U A15G U25C G46U, the self-cleavage is 0.06.
The result for C12U A64U U78G reads 0.65.
The result for C12G U26A U66C reads 0.12; that for C12U A28G U41C U67C, 0.13; that for C12U A13G U26C C44U U54A, 0.07.
The result for C12U A45G A56U U78C reads 0.58.
Turning to C11U G16U U41C, the self-cleavage worked out at 0.22.
The result for C12U A20G U31C A65U C68A reads 0.13.
The value for C12A A15G A18U U76C A77U was 0.3.
On to C12A A15U U66C U72A U78C, for which the self-cleavage amounted to 0.13.
The value for C12U A18C A45G U72A was 0.24; that for C11U U26A U58C was 0.19.
On to C12A U26C A45U A47G U72G U80A, for which the self-cleavage worked out at 0.23.
Regarding C11U U49C A57G, the self-cleavage is 0.15.
The result for C11U A15G A35U U74C reads 0.36.
The value for C11U A21U G61A was 0.06.
As to C12G A35G G42A C44A U60A, the self-cleavage amounted to 0.
The result for C11U U25C A45C U66G U67C reads 0.05; that for C12A U31A U48C C62U U69C U76A, 0.13.
The value for C12A U26A A57G was 0.5; that for C11U U41C U48A U72G was 0.09; that for C12G U49C U67C was 0.09.
The value for C11U U74C U80G was 0.84.
In the case of C11U G24C U43C U72C, the self-cleavage stood at 0.11.
The value for C12A A13G C39G U67C C68G was 0.13.
On to C11U A35G A45G A56G A64G, for which the self-cleavage came out at 0.91.
On to C12U C14U A15U C32U U43C A65G U67C, for which the self-cleavage worked out at 0.06.
The value for C12U A18G U60G U80A was 0.25; that for C12U A56G U72A was 0.94; that for C11U A15U A18U C29U A47G U51C A57G was 0.09.
The value for C11U A20G A21G was 0.36.

The values above are taken from the RNAGym collection of RNA variant scans (doi:10.1093/nar/gkz1192).
